Among all 52,000 compounds or so, about 1,700 (3.3%) were called active. Cut-off read from the data, not from the text of the source: active = survival mostly below about 52% (no sharp cut-off); inactive = mostly above about 56%. The list shows a part of the results.

This assay relates to Wild type. As to the kind of experiment: S. aureus survival, RN4220 and DeltatarO strains – OD600, teichoic acid synthesis inhibitors, primary screen (AID 463173). To be noted: S. aureus RN4220 wild type/DeltatarO growth, OD600, 18 h, hits give low values, screened at 18.75 µg/mL (by protocol).
With `CCCCNC(=O)C1CCN(S(=O)(=O)c2ccc3c(ccn3CC)c2)CC1`, the survival was inactive: 124%. `CC(C)NC(=O)C1CCN(C(=O)c2cc3sccc3n2Cc2ccc(Cl)cc2)CC1`: the survival is inactive: 81%. For the molecule `Cc1cc(C)c(NC(=O)c2ncoc2-c2ccco2)c(C)c1`, the survival is inactive: 112%.

As for `O=S(=O)(NCCc1csc2nc(-c3ccccc3)nn12)c1ccc(Cl)s1`, the survival was inactive: 82%. As to `COc1ccc2c(CNC3CCCCCC3)c(C(=O)O)n(Cc3cccc(F)c3)c2c1`, the survival was inactive: 82%. For `Cc1cc(C)cc(NC(=O)CSc2nnc(-c3cc4occc4n3C)n2-c2ccccc2C)c1` the value was inactive: 100%; for `CCN(CC)CCSc1nnc2c3cc(F)ccc3n(C)c2n1`, inactive: 139%; for `COC(=O)c1ccc(OC)c(CN2C(=O)N(c3ccc(C(C)=O)cc3)S(=O)(=O)c3ccccc32)c1`, inactive: 100%. For `CCOC(=O)c1c(C)[nH]c(CCC(=O)Nc2ccc(Cl)cc2C)c1C` the value was inactive: 72%. Turning to `Cc1ccc(CNCc2c(C(=O)O)n(Cc3ccc(C)cc3)c3cc(C)ccc23)cc1`, the survival was inactive: 16%. Turning to `Cc1ccc(-c2noc(CN(C(=O)COc3cc(C)cc(C)c3C)C(C)C)n2)cc1`, the survival is active: 1%.

For `Brc1ccc(-c2cc(-c3ccccc3)no2)cc1`, the survival was inactive: 112%. For `COc1ccc(-c2noc(CNS(=O)(=O)c3ccc(Br)cc3)n2)cc1OC` the value was inactive: 93%. On to `Cc1ccc(C)c(CN2C(=O)c3ccccc3S(=O)(=O)c3ccc(C(=O)NCc4ccccc4)cc32)c1`, for which the survival is inactive: 108%. For `CCn1cc2nc(SCc3cc(C)ccc3C)n(Cc3ccc(OC)cc3)c(=O)c2n1` the value was inactive: 83%.

As for `Cc1cccc(OCCSc2nc3ccc(NC(=O)COc4ccccc4)cc3s2)c1`, the survival is inactive: 99%. As to `CCCN1CCc2nc(N3CCN(c4ncccn4)CC3)ncc2C1`, the survival is inactive: 83%. As for `Cc1cccc(OCCCn2c(CCNC(=O)C(C)(C)C)nc3ccccc32)c1`, the survival is inactive: 84%.

Take `COc1ccc(S(=O)(=O)Nc2cc3c(cc2NCc2ccccc2)n(C)c(=O)n3C)cc1`: the survival is inactive: 79%. Regarding `CCOc1ccc(C(=O)Nc2ccc3oc(-c4cccnc4)nc3c2)cc1`, the survival is inactive: 89%. In the case of `Cc1ccc2c(=O)c(C(=O)c3ccc(F)cc3)cn(CC(=O)NCCc3ccccc3)c2n1`, the survival is inactive: 136%. In the case of `CCOCCCNC(=O)C(=O)Nc1c2c(nn1-c1ccc(OC)cc1)CSC2`, the survival was inactive: 70%. Turning to `COc1ccc(CN(Cc2ccco2)c2cnc(S(C)(=O)=O)nc2C(=O)Nc2ccc(C)cc2C)cc1`, the survival is inactive: 89%. For `Cc1c(C(=O)NCc2ccccc2Cl)sc2nc[nH]c(=O)c12` the value was inactive: 82%; for `O=C(CN1CCCN(Cc2ccc(F)cc2)S1(=O)=O)NCc1ccccc1Cl`, inactive: 78%; for `CN1CCN(CCCNC(=O)c2ccc3nc(Cc4ccccc4)oc3c2)CC1`, inactive: 81%. `Cc1ccc(-n2nc3c(=O)n(CCCC(=O)NCc4ccccc4F)nc(C)c3c2C)cc1`: the survival is inactive: 60%. Consider `Cc1csc2nc(COC(=O)CNC(=O)c3ccccc3Cl)cc(=O)n12`, for which the survival was inactive: 74%. For the molecule `COC(=O)CCCCC1SCC(NC(=O)c2ccccc2)C1OC(C)=O` (centres undefined), the survival was inactive: 92%. Regarding `O=C(Nc1c(C(=O)N2CCN(c3ccccc3F)CC2)oc2ccccc12)c1ccccc1F`, the survival is inactive: 59%. As for `O=C(CSc1nc2ccncc2[nH]1)Nc1ccccc1C(F)(F)F`, the survival was inactive: 81%. For `Cc1nc(-c2ccc(S(=O)(=O)N3CCN(c4ccc(F)cc4)CC3)cc2)co1`, the survival was inactive: 72%. On to `CCC12CN3CC(CC)(CN(C1)C3c1cc(Br)ccc1OC)C2=O` (centres undefined), for which the survival is inactive: 89%. Regarding `CCn1cc(C(=O)NCc2ccc(C)cc2)c(=O)c2cc(S(=O)(=O)N3CCc4ccccc4C3)ccc21`, the survival was inactive: 74%.

`CCC(=O)N1CCc2cc(Br)cc(S(=O)(=O)CCC(=O)NCc3ccc(F)cc3)c21`: the survival was inactive: 82%. For `CC(=O)N1CCOc2cc(S(=O)(=O)N(C)Cc3ccccc3)c(Cl)cc21` the value was inactive: 92%; for `CCc1ccc(N(C)S(=O)(=O)c2ccc3[nH]cc(C(=O)NCC4CCCO4)c(=O)c3c2)cc1` (centres undefined), inactive: 74%. Take `N#Cc1ccccc1NC(=O)c1cnc(N2CCOCC2)c2ccccc12`: the survival is inactive: 72%. With `COc1cccc2c1Oc1ncccc1N(C(=O)CCC(=O)NCc1ccc(C)cc1)C2`, the survival was inactive: 88%. Turning to `COc1ccccc1-c1nnc(C2CCN(C(=O)c3ccc(Cl)cc3)CC2)o1`, the survival was inactive: 90%. Take `Cc1ccc(Cn2c(CNC(=O)c3cccc(C)c3)nc3ccccc32)cc1`: the survival was inactive: 107%. As for `CCOc1ccccc1NC(=O)Cn1c2ncccc2c(=O)n1-c1ccc(C)c(C)c1`, the survival is inactive: 58%.

As to `CCc1ccc2nc(N3CCN(C(=O)C4CC4)CC3)sc2c1`, the survival was inactive: 71%. For `Cn1nnnc1SCCCNCc1cccc(OCc2ccccc2Cl)c1` the value was inactive: 90%; for `COc1ccc(C)cc1NC(=O)CSc1nc(=O)n(Cc2ccccn2)c2c1CCC2`, inactive: 140%; for `Cc1oc(-c2ccc(C(=O)Nc3ccccc3F)cc2)nc1COc1ccccc1`, inactive: 78%. Take `CCN1C(=O)C(Cc2nc3ccccc3c(=O)n2-c2ccccc2)c2cc(Br)ccc21` (centres undefined): the survival was inactive: 73%. Consider `COc1ccc(C2C(=O)N(C3CCC(C)CC3)CC(=O)N2CCC2=CCCCC2)cc1OC` (centres undefined), for which the survival was active: -3%. As to `CCOc1ccc(NC(=O)CN2C(=O)C3(SCC(=O)N3c3ccc(F)cc3)c3ccccc32)cc1` (centres undefined), the survival was inactive: 72%.

Consider `CC(=O)N1CCCc2cc(S(=O)(=O)Nc3ccc(C)c(F)c3)ccc21`, for which the survival is inactive: 84%. In the case of `Cc1oc2c(c(C)cc3oc(=O)c(CC(=O)NCc4ccc(F)cc4)c(C)c32)c1C`, the survival is inactive: 85%. For `COc1ccc(CNc2oc(-c3ccc(COc4ccc(OC)cc4)o3)nc2C#N)cc1` the value was inactive: 129%. As to `O=C(N/N=C/c1ccccc1)C(O)c1ccccc1` (centres undefined), the survival is inactive: 119%. On to `Cc1cc(NC(=O)C2C3C(=O)N(CCC(C)C)C(C(=O)NC(C)(C)C)C34C=CC2(C)O4)no1` (centres undefined), for which the survival was inactive: 111%. For `N#Cc1cc2cc3c(cc2nc1SCc1cccnc1)OCCO3` the value was inactive: 106%. In the case of `Cc1ccc(-c2nn(-c3ccccc3)c3[nH]c(=O)c(CNCCN4CCOCC4)cc23)cc1`, the survival is inactive: 111%. In the case of `CCNc1nc(NC(C)C)nc(C(=O)O)n1`, the survival is inactive: 119%. On to `O=C1c2ccccc2C(=O)N1CSC1=NCCS1`, for which the survival is inactive: 111%. In the case of `CCOC(=O)c1ccc(NS(=O)(=O)c2ccc3[nH]c4c(c3c2)CCCCC4)cc1`, the survival is inactive: 89%. With `Cc1cccc(NC(=O)Cn2c(=O)oc3cc(S(=O)(=O)NC4CCCC4)ccc32)c1`, the survival was inactive: 98%. With `CC(=O)N1CCc2cc(S(=O)(=O)NC(Cc3ccccc3)C(=O)Nc3ccc(Cl)cc3)ccc21` (centres undefined), the survival was inactive: 89%. For `CCOc1ccc2[nH]c(=O)c(CN(Cc3ccccc3)C(=O)N3CCOCC3)cc2c1` the value was inactive: 105%. Regarding `Cc1cc(C)c(OCC(=O)N(Cc2cccc(F)c2)Cc2ccco2)c(C)c1`, the survival was inactive: 104%. For `CCc1nn(CC(=O)N2CCN(c3cccc(C(F)(F)F)c3)CC2)c(=O)c2cccn12` the value was inactive: 108%; for `Cc1nc2ccccc2n1CCc1nc2c3ccccc3nc(SCc3ccc(F)cc3)n2n1`, inactive: 138%. As for `CCCCN(C)C(=O)Cn1c(SCC(=O)Nc2ccc(C)c(C)c2)nc2ccccc21`, the survival is active: 14%.

In the case of `CCOC(=O)C1(C)C=C(Nc2ccc(C(=O)O)cc2)C(=O)N1c1ccc(C(=O)O)cc1` (centres undefined), the survival is inactive: 124%.

Consider `COc1ccc2c(c1)c1c(c(=O)n(-c3ccccc3C)c(=O)n1Cc1c(F)cccc1Cl)n2C`, for which the survival is inactive: 105%. Consider `O=c1sc2ccccc2n1CCc1ccccc1`, for which the survival was inactive: 108%. For `Cc1cccc(Nc2c3c(nc4nncn24)CCC3)c1C`, the survival was inactive: 98%.

With `COc1ccccc1N1CCN(CC(O)COc2ccc(C)cc2C(C)(C)C)CC1` (centres undefined), the survival was active: 2%. In the case of `CC1=C(C)CC2C(=O)N(Cc3ccccc3)C(=O)C2C1` (centres undefined), the survival is inactive: 99%.

Take `CCOC(=O)c1c(C)oc2nc(C)nc(NCC3CCN(Cc4cccc(Cl)c4)CC3)c12`: the survival was inactive: 83%.

As to `CCOC(=O)C1CCCN(C(=O)Cn2nc(CC)n3c(cc4occc43)c2=O)C1` (centres undefined), the survival is inactive: 78%. For `Cc1cccc(NC(=O)C2CCCN(c3nc4ccccc4s3)C2)c1C` (centres undefined) the value was inactive: 88%. On to `Cc1ccc(C)c(N2CCN(CCCNC(=O)Nc3ccc(Cl)cc3)CC2)c1`, for which the survival was active: -6%.

For `COc1cccc2cc(-c3nc(-c4ccc(C)cc4)c(C)s3)c(=O)oc12`, the survival is inactive: 64%.

`O=c1cc(CSc2nnc(Cn3nnc4ccccc43)o2)c2ccccc2[nH]1`: the survival is inactive: 108%. Turning to `Cc1ccc(C(=O)Nc2ccc3nc(N4CCCCC4)cc(C)c3c2)cc1F`, the survival is inactive: 65%. For `Cc1ccc(NC(=O)CCNS(=O)(=O)c2ccc3c(c2)CCCC(=O)N3)cc1` the value was inactive: 73%. For `Cc1ccc(CCNC(=O)c2ccc(CS(=O)(=O)Cc3ccccc3F)o2)cc1`, the survival was inactive: 71%. As to `CCOc1ccccc1NC(=O)CN1C=NS(=O)(=O)c2ccccc21`, the survival is inactive: 59%. With `O=S(=O)(Nc1ccc(Cl)cc1)c1cccc(S(=O)(=O)c2ccc(Cl)c(Cl)c2)c1`, the survival was inactive: 34%. For `Cc1cc(Nc2ccc(F)cc2)nc(-n2nc(C)cc2C)n1` the value was inactive: 81%; for `CC(=O)c1ccc(N2C(=O)N(Cc3cc(C)ccc3C)c3ccccc3S2(=O)=O)cc1`, inactive: 87%. For `O=C(CN1CCC(n2nnc3cc(C(F)(F)F)ccc32)CC1)Nc1ccc(N2CCCC2)cc1` the value was inactive: 95%; for `COc1ccc(NC(=O)Cc2noc3ccc(C)cc23)cc1Cl`, inactive: 92%; for `CC1=C(C(=O)Nc2cccc(C(F)(F)F)c2)C(c2ccccc2)n2ncnc2N1` (centres undefined), inactive: 101%. Take `CCc1cccc(C)c1NC(=O)CCn1nc(C)c2c(C)n(-c3ccccc3)nc2c1=O`: the survival is inactive: 69%.
